The supplement of paper PMC4967469

Tests used:
Experiment in all cases: Viability of human cancer cell lines after 72 h of drug (GDSC screen)
[1] = compound: COC(=O)CNC(=O)C(=O)OC [Dimethyloxalylglycine]; conditions: top dose 4000 µM; top dose inferred
Method: (§1)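 Human cancer cell lines in 384-well plates, medium with 10% serum, drug for 72 h over a 256-fold dose range (nine 2-fold or five 4-fold steps up to the top dose). Adherent lines were fixed and stained with the nucleic acid dye Syto60, suspension lines read with resazurin; signal relative to control wells, capped at 0 and 100%. One two-parameter sigmoid per drug and line, fitted in a mixed model over all curves with the slope shared within a line.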

[2] = compound: CN(C)Cc1cccc(N=C(c2ccccc2)c2c(O)[nH]c3cc(C(=O)N(C)C)ccc23)c1 [BIX02189]; conditions: top dose 20 µM; top dose inferred
Method: as §1

[3] = compound: COc1cccc2cc(-c3nc([C@H]4CC[C@H](C(=O)O)CC4)n4ncnc(N)c34)[nH]c12 [OSI-027]; conditions: top dose 20 µM
Method: as §1

[4] = compound: Cc1cnc(Nc2ccc(OCCN3CCCC3)cc2)nc1Nc1cccc(S(=O)(=O)NC(C)(C)C)c1 [TG101348]; conditions: top dose 10.24 µM
Method: as §1

[5] = compound: CCc1cc(-c2n[nH]c(C)c2-c2ccc3c(c2)OCCO3)c(O)cc1O [CCT018159]; conditions: top dose 10 µM; top dose inferred
Method: as §1

[6] = compound: O=C(c1ccc(C(=O)N2CCC(N3CCCC3)CC2)c(Nc2ccccc2)c1)N1CCC(N2CCCC2)CC1 [UNC1215]; conditions: top dose 1 µM; top dose inferred
Method: as §1

[7] = compound: Cc1cnc(Nc2ccc(F)cc2Cl)nc1-c1c[nH]c(C(=O)N[C@H](CO)c2cccc(Cl)c2)c1 [VX-11e]; conditions: top dose 5.12 µM; top dose inferred
Method: as §1

| Cell Line | AUC [1] | pIC50 [1] | AUC [2] | pIC50 [2] | AUC [3] | pIC50 [3] | AUC [4] | pIC50 [4] | AUC [5] | pIC50 [5] | AUC [6] | pIC50 [6] | AUC [7] | pIC50 [7] |
| --- | --- | --- | --- | --- | --- | --- | --- | --- | --- | --- | --- | --- | --- | --- |
| ECC12 (stomach, suspension) | 0.786 | 2.65 |  |  |  |  |  |  |  |  |  |  |  |  |
| GCT (soft tissue, adherent) | 0.913 | < 2.40 | 0.989 | < 4.70 | 0.988 | < 4.70 | 0.9 | < 4.99 | 0.88 | 5.04 | 0.988 | < 6.00 | 0.989 | < 5.29 |
| HeLa (cervix, adherent) | 0.501 | 3.60 | 0.988 | < 4.70 | 0.925 | < 4.70 |  |  |  |  | 0.985 | < 6.00 | 0.986 | < 5.29 |
| LU-99A (large cell lung carcinoma, adherent) | 0.478 | 3.66 | 0.943 | < 4.70 | 0.886 | < 4.70 | 0.921 | < 4.99 | 0.879 | < 5.00 | 0.984 | < 6.00 | 0.963 | < 5.29 |
| NCI-H1650 (lung adenocarcinoma, adherent) |  |  |  |  |  |  |  |  | 0.956 | < 5.00 |  |  |  |  |
| NCI-H2170 (lung squamous cell carcinoma, adherent) | 0.798 | 2.70 | 0.982 | < 4.70 | 0.929 | < 4.70 | 0.95 | < 4.99 | 0.853 | 5.08 | 0.986 | < 6.00 | 0.986 | < 5.29 |
| PC-3 (prostate, adherent) | 0.548 | 3.46 | 0.964 | < 4.70 | 0.254 | 6.68 |  |  | 0.886 | < 5.00 | 0.978 | < 6.00 | 0.969 | < 5.29 |
| RD (rhabdomyosarcoma, adherent) | 0.644 | 3.19 | 0.941 | < 4.70 | 0.284 | 6.54 | 0.768 | 5.38 | 0.912 | < 5.00 | 0.983 | < 6.00 | 0.707 | 5.88 |
| SN12C (kidney, adherent) | 0.453 | 3.74 | 0.983 | < 4.70 | 0.935 | < 4.70 | 0.95 | < 4.99 | 0.903 | < 5.00 | 0.983 | < 6.00 | 0.984 | < 5.29 |
| SNU-175 (large intestine, suspension) |  |  | 0.914 | < 4.70 | 0.661 | 5.47 | 0.597 | 5.94 |  |  |  |  | 0.863 | 5.40 |
| SNU-398 (liver, adherent) | 0.546 | 3.47 | 0.972 | < 4.70 | 0.249 | 6.64 | 0.926 | < 4.99 |  |  | 0.984 | < 6.00 | 0.821 | 5.50 |
| SNU-1040 (large intestine, adherent) |  |  | 0.932 | < 4.70 | 0.711 | 5.21 | 0.716 | 5.48 |  |  | 0.966 | < 6.00 | 0.853 | < 5.29 |
| SW1116 (large intestine, adherent) |  |  | 0.978 | < 4.70 | 0.875 | < 4.70 | 0.985 | < 4.99 | 0.937 | < 5.00 | 0.984 | < 6.00 | 0.985 | < 5.29 |
| YMB-1-E (breast, adherent) |  |  | 0.974 | < 4.70 | 0.427 | 6.13 | 0.948 | < 4.99 |  |  |  |  | 0.972 | < 5.29 |

pIC50: −log10 of the molar value. A lower IC50 marks a more sensitive line; a limit (>, <) means that the fit lies beyond the doses tested. AUC is the area under the same curve over the 256-fold range up to the top dose, as a fraction; it is 1 without any effect and falls as sensitivity rises. For some assays here: The top dose, if marked as inferred, comes from the curve model; the source does not state it.
